Test results reported in PubChem BioAssay AID995 (National Center for Advancing Translational Sciences (NCATS), 2007).
The whole screen tested about 72,000 compounds, of which about 710 (0.99%) were called active. The shares of active, inactive and inconclusive entries below differ from those in the screen. The call rests on the fitted dose curve; in most records, active means well fitted inhibition curve with a large enough effect; inconclusive means small, poorly fitted or top-dose-only effect; inactive means no such curve, though single readings can be large or run the other way. Potencies beside an inconclusive call are fits to weak or partial responses and may not hold up.

test: qHTS Assay for Inhibitors of the ERK Signaling Pathway using a Homogeneous Screening Assay; conditions: HEK293-V1b, vasopressin-stimulated pERK AlphaScreen; activity, negative = inhibition: at 57.5 µM (top of the series) unless noted; further: nearly all actives have a fitted effect of over 55% in size
Method in brief: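 HEK293 cells stably expressing V1b receptor, seeded overnight in 1% FBS, were treated with compounds for 30 min at 37C, then stimulated 5 min with 25 nM vasopressin; phospho-ERK read by AlphaScreen SureFire after lysis.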
On the % scale 0 is the no-effect control and ±100 the full control effect; potency means the concentration at half of the fitted maximal effect; tags describe the fitted curve by direction and shape.

Potency, active:
N#Cc1nc(Cc2ccccc2)oc1N1CCN(c2ccccc2)CC1 25.1 µM
COC(=O)C(C)Sc1nc2c(c(=O)[nH]c(=O)n2C)n1CCC(C)C (stereo not drawn) 31.6 µM

Potency, inactive:
CCC(=O)Nc1ccc2c(c1)C(=O)N(C1CCCCC1)C2=O
O=C(c1cc(-c2cccs2)on1)N1CCCc2ccccc21
COc1cc(NC(=O)C2CCCO2)c(OC)cc1NC(=O)c1ccccc1 (stereo not drawn)
Cc1ccc2nsnc2c1S(=O)(=O)NCc1cccnc1
N#Cc1ccc(CN2CC3(CCN(C(=O)c4cnccn4)CC3)C2)cc1
CCCn1c(C)nc2c(NC3CCN(Cc4ccccc4)CC3)nc(C)nc21
CCN1CCN(C(=O)CS(=O)(=O)Cc2nc(-c3ccc(C)cc3)oc2C)CC1
COc1ccc2c(c1)c1ncn(Cc3ccco3)c(=O)c1n2C
COc1cc(OC)cc(C(=O)N(Cc2cc3cc(C)ccc3[nH]c2=O)C(C)C)c1
O=c1c(-c2ccccc2)nc2cnc(N3CCNCC3)nc2n1Cc1ccc(F)cc1
COc1ccc(CCN(C)CCc2ccc(OC)c(OC)c2)cc1OC
CCN(CC)CCCC(C)n1c(-c2ccccc2)nc2c(N3CCOCC3)nc(C)nc21 (stereo not drawn)
CCOC(=O)c1cc2c(N)c(C(=O)c3cc(C#N)c(SC)nc3C)sc2nc1C
O=c1c(-c2cccc(F)c2)nc2cncnc2n1-c1ccccc1
CCCn1c(=O)c2[nH]c(-c3ccccc3)nc2n(CCC)c1=O
Nc1cc(N)c(OCC(F)(F)F)cc1OCC(F)(F)F
CC(C)c1ccc2c(c1)CCC1C(C)(C(N)=O)CCCC21C (stereo not drawn)
Cc1ccc(CNc2ncc(-c3ccc4c(c3)OCO4)n2C)cc1
COc1ccccc1-c1nc(C#N)c(N2CCN(c3cccc(Cl)c3)CC2)o1
CN1C(=O)c2ccccc2N(C)C1c1ccc2c(c1)OCO2 (stereo not drawn)
CNc1ncncc1-c1c(C)noc1C
CC(=O)Nc1ccc(C(=O)CSc2nnc3scc(-c4ccccc4)n23)cc1
CC(=O)OCC(=O)[C@@]1(O)CCC2C3CCC4=CC(=O)CC[C@]4(C)C3C(O)C[C@]21C (stereo partly drawn)
O=C(c1ccccc1)N1CCN(c2ccc(Cl)cc2)CC1
Cc1ccccc1-c1cc(N(C)Cc2ccco2)ncn1

Potency, inconclusive:
CCNS(=O)(=O)c1ccc(NC(=O)Nc2cccc(C(F)(F)F)c2)cc1 39.8 µM [inhibitor, single point]
CCOc1ccc(OCc2ccc(C(=O)NCc3ccncc3)o2)cc1 20 µM [inhibitor, partial curve]
CCOC(=O)c1[nH]cnc1C(=O)Nc1ccncc1 1.26 µM [inhibitor, partial curve]
Cc1[nH]nc(-c2ccc(O)cc2O)c1-c1ccc(Cl)cc1 10 µM [inhibitor, partial curve, poor fit]
CC(C)N(Cc1nc(-c2ccccc2)no1)C(=O)CN1C(=O)c2ccccc2C1=O 12.6 µM [inhibitor, partial curve]
Cc1cc(NC(=O)CSCc2nc(-c3cccc(Cl)c3)oc2C)no1 25.1 µM [inhibitor, partial curve]
Cc1ccc(CCNC(=O)c2nnn(-c3cc(C)cc(C)c3)c2N)cc1 31.6 µM [inhibitor, single point]
CCOC(=O)Cc1csc(NS(=O)(=O)c2ccc3c4c(cccc24)C(=O)N3CC)n1 6.31 µM [inhibitor, partial curve]
COc1cccc(-c2nc(NCc3ccccc3)c3ccccc3n2)c1 5.01 µM [inhibitor, full curve]
CCOC(=O)c1cccc(NC(=O)CSc2nc3ccccc3c(=O)n2CC)c1 15.8 µM [inhibitor, single point]
O=c1c(O)c(-c2ccccc2)oc2ccccc12 39.8 µM [inhibitor, single point]
CCn1c(=NC(=O)CSC(C)=O)sc2ccccc21 2.51 µM [inhibitor, partial curve]
Cc1ccc(NC(=O)NC(=O)CN2C(=O)NC3(CCc4ccccc43)C2=O)c(C)c1 (stereo not drawn) 12.6 µM [inhibitor, partial curve]
Cc1ccc(-c2cc(C(=O)NCCCn3ccnc3)c3cc(Br)ccc3n2)o1 12.6 µM [inhibitor, partial curve]
CCOC(=O)N1CCN(CC(=O)Nc2c(C(=O)OC)[nH]c3ccccc23)CC1 20 µM [inhibitor, partial curve]
Cc1cc(C)c2[nH]c(=O)c(CN(CC3CCCO3)S(=O)(=O)c3ccc4c(c3)OCCO4)cc2c1 (stereo not drawn) 25.1 µM [inhibitor, partial curve, poor fit]
COc1ccccc1N1CCN(Cc2cc(Br)c(O)c3ncccc23)CC1 31.6 µM [inhibitor, partial curve]
COc1cc(OC)c2c(=O)c(OC)c(-c3ccc(OC)c(OC)c3)oc2c1 1 µM [inhibitor, full curve, poor fit]
CCCc1nc2ccccc2c2nc(N)nn12 15.8 µM [inhibitor, partial curve]
Cc1ccc2[nH]c3c(NCc4ccco4)ncnc3c2c1 15.8 µM [inhibitor, partial curve]
O=C(CCN1C(=O)c2ccccc2C1=O)N1CCC(c2ccccc2)C1 (stereo not drawn) 20 µM [inhibitor, partial curve]
N#Cc1c(NC(=O)CSc2ncnc3sccc23)oc(-c2ccco2)c1-c1ccco1 25.1 µM [inhibitor, single point]
O=S(=O)(c1ccc(S(=O)(=O)N2CCN(C/C=C/c3ccccc3)CC2)cc1)N1CCCC1 39.8 µM [inhibitor, single point]
COC(=O)c1[nH]c2cccc(OC)c2c1NC(=O)CCN1CCN(c2cccc(Cl)c2)CC1 31.6 µM [inhibitor, single point]
Cn1c(CNC(=O)Nc2ccccc2Cl)nnc1SCc1ccccc1 12.6 µM [inhibitor, partial curve]
CCOC(=O)c1cccc(NC(=O)C2CCN(S(=O)(=O)c3cccs3)CC2)c1 15.8 µM [inhibitor, partial curve]
CC(C)c1ccc(OCC(O)Cn2cnc3ccccc32)cc1 (stereo not drawn) 25.1 µM [inhibitor, single point]
COc1cccc(-c2cncnc2Nc2ccc(F)cc2)c1 25.1 µM [inhibitor, single point]
O=S(=O)(c1ccccc1)c1nc(-c2ccco2)oc1NCc1ccco1 12.6 µM [inhibitor, partial curve]
COC(=O)c1ccc(OCC(=O)c2ccc(O)cc2O)cc1 39.8 µM [inhibitor, partial curve, poor fit]
COc1cc(C2C(C#N)=C(N)Oc3cc(N(C)C)ccc32)cc2c1OCO2 (stereo not drawn) 39.8 µM [inhibitor, single point]
O=C(c1cc2nc(-c3ccco3)cc(C(F)(F)F)n2n1)N1CCN(c2ccccn2)CC1 15.8 µM [inhibitor, partial curve]
CCc1ccc(C2CC(c3ccc(C)cc3)n3nc(N)nc3N2)cc1 (stereo not drawn) 31.6 µM [inhibitor, single point]
N=C1C=CC=C2C1=NC1(CCCCC1)N2O 39.8 µM [inhibitor, single point]
Fc1ccccc1OCCCCn1cncn1 15.8 µM [inhibitor, partial curve]
COc1cccc(-c2nc(CS(=O)(=O)CC(=O)N3CCN(C)CC3)c(C)o2)c1 31.6 µM [inhibitor, single point]
COc1cc2c(cc1NC(=O)CSc1nnc(Cc3cccs3)n1C)oc1ccccc12 10 µM [inhibitor, partial curve]
CCn1c(=O)cc(C(=O)OC)sc1=Nc1ccc(F)c(F)c1 39.8 µM [inhibitor, single point]
N#CC(C(=O)NCCc1ccccc1)c1nc2ccccc2nc1N1CCOCC1 (stereo not drawn) 3.98 µM [inhibitor, partial curve]
Cc1noc(C)c1-c1cncnc1Nc1ccccc1 5.01 µM [inhibitor, full curve, poor fit]
CN(C)c1ccc2c(c1)OC(N)=C(C#N)C2c1cccc(F)c1 (stereo not drawn) 39.8 µM [inhibitor, single point]
CCOc1ccccc1C(=O)Nc1ccccc1O 12.6 µM [inhibitor, partial curve]

activity, negative = inhibition, inactive:
NC1=N[C@H](c2ccc(Cl)cc2)N(c2ccc(S(N)(=O)=O)cc2)C(N)=N1 -10.3% [at 11.5 µM]
CCN(CC)C[C@@H](O)c1ccc2ccc3ccccc3c2c1 -11.9% [at 11.5 µM]
N[C@H]1[C@@H](C(=O)O)[C@H]2C=C[C@H]1C2 3.04% [at 11.5 µM]
O=c1n(Cc2cc3c(cc2Cl)OCO3)c(=O)n2n1CC[C@H]1/C(=N\OCc3ccccc3)[C@H]3O[C@@H]3[C@@H](O)[C@@H]12 8.17% [at 11.5 µM]
